Measured values: the supplement of paper PMC10126150
Values marked as one replicate rest on one cluster of the flow cell; about a third of the high ones do not repeat.

System: ATP
Test: switch fluorescence ratio, 500 uM ATP over buffer (Cy3 cluster intensity, sum of 5 cycles each) (fold (ratio)); higher = stronger signal-on switching upon ATP binding; sequences stand for … in TCGTCGGCAGCGTCAGATGTGTATAAGAGACAGTTTTTTTTTTTTTTTTTTTTTTTTT…TC
Conditions: aptamer strand: ATP DNA aptamer (quencher-CACCTGGGGGAGTATTGCGGAGGAAGG + anchor), 100 nM annealed; ATP concentration: 500 uM; one replicate
In short: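 Five buffer/ATP imaging cycles were run on Cy3-labelled switching-strand clusters on a modified Illumina MiSeq flow-cell, with NaOH stripping and re-annealing between cycles. In each cycle, clusters annealed to 100 nM quencher-labelled ATP aptamer were imaged in selection buffer, then after 15 min with 500 uM ATP at 22 °C. Per cluster, the fluorescence ratio is summed target-cycle over summed buffer-cycle Cy3 intensity, averaged per switch-domain sequence. Only clusters within 100-1000 RFU were kept.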
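Further: ATP exposure 15 min at 22 °C before imaging.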

Sequence	switch fluorescence ratio
CGTGTTACAC	1.01
CAGACGCGTG	1
CCTTAAAATG	1.08
CACTAGGAGA	0.996
TAAAGCGAAG	0.98
TGTTATTGTC	1.03
GTTCTGTATT	1.01
AGGTGGTCTT	1.03
GCCAATTTGT	0.974
GTTCCAACCT	1.48
TATGCAGTTC	1.12
TTCTTCCGCG	1.27
CTAGTGTGTG	1
AGTTTGCCCA	0.98
ACCCTCTTCT	1.02
CCTCATATCG	1.06
ACTTGAACCT	1.84
GGGATGCTAT	1.03
CAAAATTTTG	0.991
AGAGAGGGGA	0.973
TTTAGCAACG	1.06
CAATTTAAGT	1.01
GATTAGGATT	0.973
TCACGAACCG	1.28
CTGGACACCT	1.08
TATTACACTA	1.12

Sequence	switch fluorescence ratio
TTTATAAGTG	1.06
TGCGAAAGGT	0.947
TTCAACGGG	1.11
TCTGGTCCGA	0.988
CTTTCAATAG	1.53
GCGGGTGCAA	1.03
AAGGTTCTGT	0.983
CATCTATCCC	1.02
GTACGCACCC	1.71
GAAGTTTTT	0.984
ACGTAGGGTC	1.1
GTCACTCCGG	1.14
ACGTTGCGAT	1.09
AGCGATAATG	1.06
ATAGAAACCG	1.1
ACAATATGGC	0.942
TGACAGCTGG	0.939
CGACGGCCAG	1.05
TGTGGGGCTC	0.987
GTTTAGCAGG	1
GATGTGGGTC	0.961
AAATAGAAAA	1.02
CAGTCTACAA	1.01
CAAAGTTTGT	0.976
GGCTTCGCCA	1.12
ATATCTTGCA	1.07

Sequence	switch fluorescence ratio
AATCAAGTCC	1.01
TCCTGGGGCT	1.06
AAAGACAAGC	1
TACAACCGCC	1.31
GTGATAGAGC	1.06
CGGTAAGTAG	1
CCCCCAGATT	1.84
GGTGGTTTTA	1.02
TTTGACATAT	0.994
GGATACGAA	1.01
CGCATACTAG	4.42
GTCGTTGCTG	1.03
ACAGGGTCTA	1.05
TGCATTGTGT	0.992
CTGTCGTACG	0.976
CTCGGAACGG	1.01
GCCGCGAGA	1.24
TATGGTTGTC	1.06
AAGCCTCATG	1.02
CAGGTATTTA	1.02
CGCCGGAGTG	1.03
AACGGTACTA	1.36
CCGTTTGTTA	1.04
TCGGGGCGTT	1
GTGTGCCATG	0.972
TTCACTATGA	1.03

Sequence	switch fluorescence ratio
GCCGCCTACC	1.17
TTGGTGTGGA	1.03
GGCGTATGCA	1.04
TTCGTCAGTA	1.02
CAGGGTGGC	1.07
AGTCGGGGAT	0.97
GTCGATGCTA	1.02
GCATACACGC	1.09
ACGTCACTCT	1.62
TTGTGGACGT	1
ACCTAACCCG	1.92
TTTAGGTG	1.19
GATAAACGTA	0.989
AGGTTACCAC	1.02
CATGATGCGT	0.982
AAGCCACGAC	1.19
CGAAGGATGG	0.974
GAGTGGTCGA	0.934
AGGAGAAGAA	1
AGGGCCTATA	0.957
TCTTCAAAT	0.978
GCAGACCTGG	1.03
CGCTCAGAAT	1.04
CAATCAGACT	0.976
AGTTCTAAAA	0.971
GCCCGGTACG	1.01

Sequence	switch fluorescence ratio
AGTTGGCAGC	0.97
CTTGGTGGCG	0.957
CTATTCGGT	1.03
TTACTTGCGC	1.16
AGGATTCTTC	0.961
ATTATCCATT	0.975
GTGGGGATAC	1.14
ATCATTGGAT	0.99
TTTGGCCAC	1.01
TCGAATACTA	1.08
AACACCGGAG	1.05
ATGCAACAGT	1.04
TGGGGTACCC	1.01
CCCCGATAGG	1.03
CCGGCTTATA	1.13
CAGGCAGGCC	0.941
AGTATCGCTA	1.01
AATACTCCGA	1.9
TAAAAAGTTA	0.95
CACAAGTTCG	1.02
GCAGTCGTTC	0.973
TGGGGCCCAC	1.04
TAATTGCGCG	0.967
TGCTTACAGA	1.03
TGCGATCCCT	1.42
GAAGAACTCT	0.984

Sequence	switch fluorescence ratio
CCGATGATGG	1.14
TTTAGCCCGC	1.05
AATAGGCGTC	0.976
CAGGCCGGAA	1.01
AATCGAAAAA	1
TCTGGTAGTA	1.01
TCGTGTCCAG	1.01
CTGTTAGACT	0.998
GCGTCGATTG	1.01
TACCAACCTA	1.11
CAATCCAGGC	1.03
GCTTCATACG	1.98
CATTGCCTGG	1.09
GCAATGGAAA	0.995
TAAGTTTAGA	1.04
TCTGGGACGA	0.979
AATTATCTAA	0.977
GAAATAGTCT	0.994
GCTGCGAAAA	0.968
GTTATATCGG	0.974
TTCATCTGAG	1.01
GGGATCGATA	0.995
AGCTTGCACG	1.06
